Test results taken from the antibiotic and cytotoxicity screens of Wong et al. (2023).
Some of the results follow.

What was measured:
HSkMC = human skeletal muscle cells; assay: cytotoxicity call (relative viability < 0.9); details: 10 µM
HepG2 = assay: cytotoxicity call (relative viability < 0.9); details: 10 µM
S. aureus RN4220 = assay: growth inhibition call (relative growth <= 0.2); details: 50 µM

Row | SMILES | cytotoxicity call (HSkMC) | cytotoxicity call (HepG2) | growth inhibition call (S. aureus RN4220)
1 | O=C1[C@@H]2CCCN2C(=O)[C@@H]2CCCN12 | inactive | inactive | inactive
2 | Cc1noc(C)c1S(=O)(=O)N(C)C[C@@H]1Oc2ccc(NC(=O)c3ccncc3)cc2CC(=O)N([C@H](C)CO)C[C@@H]1C | inactive | inactive | inactive
3 | CS(=O)(=O)c1nnnn1-c1ccc2c(c1)OCO2 | inactive | inactive | inactive
4 | C[C@@H]1CCCCO[C@@H](CN(C)C(=O)C2CCCCC2)[C@@H](C)CN([C@H](C)CO)C(=O)c2cc(NC(=O)Cc3ccccc3)ccc2O1 | inactive | inactive | inactive
5 | C[C@@H]1CN([C@@H](C)CO)C(=O)c2cc(NC(=O)Nc3cccc4ccccc34)ccc2O[C@@H](C)CCCCO[C@H]1CN(C)Cc1ccccc1 | inactive | active | inactive
6 | Cc1ccc2c(c1)c1nc3ccccc3nc1n2Cc1ccccc1 | inactive | inactive | inactive
7 | COCC(=O)Nc1ccc2c(c1)C(=O)N(C)C[C@H](OC)[C@H](C)CN(Cc1ccccc1F)[C@@H](C)CO2 | inactive | inactive | inactive
8 | NC(=O)[C@H]1CCCCN1 | inactive | inactive | inactive
